Reference: PMC4336329 (PLoS ONE, 2015)
Screen size: about 310,000 compounds; about 2,200 (0.71%) showed an effect of 50% or more. The effect is printed as a negative number. The list shows a part of the results.

Target: human ether-à-go-go-related gene (hERG) potassium channel (human, UniProt Q12809)
Experiment: primary screen, population patch clamp on CHO cells stably expressing hERG

Chain of human ether-à-go-go-related gene (hERG) potassium channel (Q12809 whole entry, looked up): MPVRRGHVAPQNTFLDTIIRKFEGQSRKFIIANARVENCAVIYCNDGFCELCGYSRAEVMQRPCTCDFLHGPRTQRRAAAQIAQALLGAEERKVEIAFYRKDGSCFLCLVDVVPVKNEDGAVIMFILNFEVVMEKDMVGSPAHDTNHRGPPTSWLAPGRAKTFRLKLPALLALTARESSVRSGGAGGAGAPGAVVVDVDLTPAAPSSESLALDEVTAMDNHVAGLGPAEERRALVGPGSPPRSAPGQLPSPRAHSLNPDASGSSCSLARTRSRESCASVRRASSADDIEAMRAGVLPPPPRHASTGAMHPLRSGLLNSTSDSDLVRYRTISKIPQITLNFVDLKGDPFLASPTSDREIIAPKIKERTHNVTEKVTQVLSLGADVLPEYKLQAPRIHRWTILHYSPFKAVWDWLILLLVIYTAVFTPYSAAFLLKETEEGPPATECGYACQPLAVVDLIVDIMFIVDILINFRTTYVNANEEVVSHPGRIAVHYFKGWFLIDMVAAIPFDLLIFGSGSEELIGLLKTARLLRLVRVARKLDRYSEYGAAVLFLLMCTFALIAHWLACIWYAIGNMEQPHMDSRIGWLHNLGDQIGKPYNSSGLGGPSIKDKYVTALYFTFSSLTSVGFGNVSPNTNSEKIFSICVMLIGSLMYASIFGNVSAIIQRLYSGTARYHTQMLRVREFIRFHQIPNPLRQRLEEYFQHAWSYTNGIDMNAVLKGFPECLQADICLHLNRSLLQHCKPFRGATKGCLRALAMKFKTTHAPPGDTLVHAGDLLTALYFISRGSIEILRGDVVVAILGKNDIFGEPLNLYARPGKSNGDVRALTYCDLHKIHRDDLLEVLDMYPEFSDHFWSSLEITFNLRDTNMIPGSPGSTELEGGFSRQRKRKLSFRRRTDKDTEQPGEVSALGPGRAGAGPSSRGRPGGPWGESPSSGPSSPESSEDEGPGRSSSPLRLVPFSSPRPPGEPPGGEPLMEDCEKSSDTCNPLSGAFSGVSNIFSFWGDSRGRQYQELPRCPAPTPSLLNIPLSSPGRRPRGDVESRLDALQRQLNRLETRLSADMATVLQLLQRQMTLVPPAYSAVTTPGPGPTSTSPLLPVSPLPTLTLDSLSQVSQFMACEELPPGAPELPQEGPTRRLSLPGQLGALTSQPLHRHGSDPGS

Compound | hERG current change (%, negative = inhibition) at 1uM
Cc1ccc(S(=O)(=O)NCC(=O)OCc2cc(=O)oc3c(C)c(C)ccc23)cc1C | -10.9%
CCN(CC)C(=O)Oc1ccc(Cl)c2cccnc12 | 12.2%
COc1ccc(NC(=O)c2nc[nH]c2C(=O)NCC(=O)OC(C)(C)C)cc1 | 4.71%
COc1cccc(-n2cc(CNCc3c(C(=O)N(C)C)nc4ccc(Cl)cn34)cn2)c1 | 3.35%
O=C1c2ccc(-c3ccc(F)cc3OCc3ccccc3)cc2S(=O)(=O)c2cccc(C(=O)N3CCCC3)c21 | 10.9%
Cc1ccc(C(=O)CNc2ccc(Br)cc2)cc1 | 11.3%
Cc1cc(C#N)c(C)n1-c1cc(S(=O)(=O)N2CCOCC2)ccc1N1CCCC1 | 5.78%
CCn1c(SCc2nc3ccccc3c(=O)[nH]2)nc2ccccc21 | -3.29%
COc1ccc(C(=O)Nc2ccccc2Cc2ccccc2)c(OC)c1 | 11.3%
Cc1ccccc1OCCn1cc(C(=O)O)c2ccccc21 | 10.3%
COC(=O)Cn1ncn2c(cc3oc(C)cc32)c1=O | 11.9%
CCOC(=O)CN(C(=O)CNC(=O)c1ccco1)C(C(=O)NC1CCCC1)c1ccccc1OCC (stereo not drawn) | 16.9%
COc1ccc(CCNS(=O)(=O)CCNC(=O)c2ccc3c(c2)OCO3)cc1OC | 10.4%
COc1ccc(NC(=O)NCCCN2CCc3ccccc3C2)cc1 | -69.5%
COc1cc(NS(=O)(=O)c2ccc(NC(=O)/C=C/c3ccc([N+](=O)[O-])cc3)cc2)ncn1 | 14.4%
COc1ccc(C(=O)O)c(O)c1 | -0.854%
CCOC(=O)c1c(NC(=S)N2CCN(C)CC2)sc2c1CCN(C(=O)OCC)C2 | 11.9%
COc1cccc(-c2nn(-c3ccccc3)cc2C(=O)Nc2nccs2)c1 | 10%
CCCC(=O)Nc1cccc(NC(=O)c2ccc3c(c2)OCO3)c1 | -20.9%
Fc1ccccc1N1CCN(c2nnnn2-c2ccccc2)CC1 | 6.46%
CCOCC(=O)Nc1cc(C(=O)Nc2ccccc2)ccc1Cl | 6.2%
Cc1ccccc1C(=O)NNC(=O)c1ccoc1C | -12.3%
CSCCC(NC(=O)/C(=C\c1ccco1)NC(=O)c1ccco1)C(=O)O (stereo not drawn) | -2.32%

Compound | hERG current change (%, negative = inhibition) at 1uM
CCc1cc(=O)oc2cc(C)cc(OCC(=O)NC(Cc3c[nH]c4ccc(O)cc34)C(=O)O)c12 (stereo not drawn) | 12.8%
O=c1nccc(Nc2ccccc2)[nH]1 | 13.4%
O=C(Nc1ccccc1Br)C1CC(=O)N(c2ccc3c4c(cccc24)CC3)C1 (stereo not drawn) | 7.21%
C=CCn1c(=O)c(C(=O)NC2CC2)c(O)c2cc(OC)c(OC)cc21 | 10.3%
O=C(NNS(=O)(=O)c1ccc(F)cc1F)C1Cc2c(ccc3ccccc23)O1 (stereo not drawn) | 17.1%
CC(C)c1nnc(NC(=O)C2CCCN(C(=O)Nc3ccc(F)cc3)C2)s1 (stereo not drawn) | 10.6%
O=C(COc1ccc2c3c(c(=O)oc2c1)CCCC3)NC(Cc1ccc(Cl)cc1)C(=O)O (stereo not drawn) | 15.3%
Cc1ccc(S(=O)(=O)NC(CC(C)C)C(=O)Oc2ccc3c4c(c(=O)oc3c2)CCC4)cc1 (stereo not drawn) | 16.5%
C[C@H]1CN=C(Nc2ccccc2)N1CCc1ccccc1 | 10.9%
Cc1cc2c(NC(=O)Nc3ccc(C(F)(F)F)cc3)cccc2nn1 | 2%
COc1cccc(OCCNC(=O)c2cc(OC)c(OC)c(OC)c2)c1 | 13.6%
O=C(CSc1nnnn1C1CCCCC1)NNC(=O)c1ccco1 | 11.7%
CCOc1cc(CN2CCN(S(=O)(=O)Cc3ccccc3)CC2)ccc1OC.O=C(O)C(=O)O | 0.965%
COc1cc(/C=C/C(=O)O)cc(S(=O)(=O)Nc2ccc3nc(SC)sc3c2)c1OC | 12.1%
CC1=C(C(=O)OC(C)C)C(c2ccco2)NC(=O)N1 (stereo not drawn) | 10.8%
Cc1ccc(S(=O)(=O)N2CCSC2)cc1C | 9.84%
O=C(CCN1C(=O)C2CC=C(Cl)CC2C1=O)NC1CCCCC1 (stereo not drawn) | 0.212%
COc1ccc(C(OC(=O)c2ccco2)C(=O)NC2CCCC2)cc1 (stereo not drawn) | 18.3%
CSc1sc(C(=O)N2CCc3ccccc32)cc1S(=O)(=O)C(C)C | 15%
Cc1ccc(-n2nc3c([n+]2[O-])CCc2c-3no[n+]2[O-])cc1 | 19.7%
CS(=O)(=O)c1ccccc1C(=O)Nc1cc2c(cc1C(=O)O)OCCCO2 | 8.44%
O=C(NCc1ccc(N2CCCC2=O)cc1)c1cccc(Cl)c1 | 2.86%
CC(C)(C)S(=O)(=O)c1cnc(-c2cnccn2)nc1N | 8.36%

Compound | hERG current change (%, negative = inhibition) at 1uM
Cc1ccc2cc(C#N)c(SCC(=O)NCC3CCCO3)nc2c1 (stereo not drawn) | 10.4%
C=CCn1cc(C(=O)NCCCOCC)c(=O)c2cc(S(=O)(=O)N(CC)CC)ccc21 | 4.06%
O=C(CN1C(=O)COc2ccccc21)c1cccc(Cl)c1 | 14.3%
O=C(O)c1ccc(NCc2nc3ccccc3n2CCOc2ccccc2Cl)cc1 | 7.61%
CC1(C)CC(CC(=O)O)C(=O)O1 (stereo not drawn) | 13.4%
Cc1ccc(/C=N/n2c(COc3ccccc3)n[nH]c2=S)cc1 | 14.9%
CCN(CC)S(=O)(=O)c1ccc(C)c(NC(=O)COC(=O)CCC(=O)c2cccs2)c1 | 13%
COc1ccccc1OC(C)C(=O)Nc1ccc2c(c1)n(C)c(=O)n2C (stereo not drawn) | 13.8%
COCc1cc(C)nc(N2CCN(Cc3ccccc3)CC2)c1C#N | -3.29%
COc1cccc(/C=C2\SC(=S)N(CCCC(=O)N3CCCCC3)C2=O)c1 | 5.8%
Cc1ccccc1OCc1nc2ccccc2c(=O)n1/N=C/c1c[nH]c2ccccc12 | 7.56%
COc1ccccc1-c1nc(SCC(=O)Nc2ccccc2)n[nH]1 | 5.6%
CN(C)CCN(C(=O)c1ccc2c(c1)CCCC2)c1nc2c(F)cccc2s1.Cl | 6.94%
Cc1ccc(/C=N/NC(=O)c2ccccn2)o1 | -5.35%
Cc1nn(C)c(C)c1NS(=O)(=O)c1ccccc1Cl | 2.49%
CCC(c1nnnn1Cc1ccco1)N1CCC(C(N)=O)CC1.Cl (stereo not drawn) | 14.4%
CCN(CC)P(=O)(Nc1ccc([N+](=O)[O-])cc1)c1c(C)nn(CCC#N)c1NC(=O)c1ccc(Cl)cc1Cl (stereo not drawn) | -0.927%
CCC(C)N1CCCC1C(=O)Nc1c(C)cc(C)cc1C.Cl (stereo not drawn) | 1.17%
Cc1cc(-c2nnc(SCC(=O)Nc3ccccc3C(F)(F)F)n2N)n[nH]1 | 19.4%
COCCOC(=O)C1=C(C)NC2=C(C(=O)CCC2)C1c1ccc(N(C)C)cc1 (stereo not drawn) | -4.29%
CCc1cc(C(=O)NCCN(C)C)cs1 | -4.33%
C/C(=N\NC(=O)CSc1nc2ccccc2o1)c1cccc(O)c1 | 6.06%
C/C(=N/OCC(=O)NCCCCCCNC(=O)CO/N=C(/C)c1cccs1)c1cccs1 | 17.5%

Compound | hERG current change (%, negative = inhibition) at 1uM
CCN(CC)S(=O)(=O)c1cccc(C(=O)NC2=NCCS2)c1 | 15.6%
C=CCN1C(=O)C(Cc2ccccc2Cl)SC1=Nc1ccc(C(=O)O)cc1 (stereo not drawn) | 8.92%
Cc1cc(C)cc(NC(=O)CSc2ccc(-c3ccccn3)nn2)c1 | 14.6%
CCC1CCc2c(sc(NC(=O)C3CC=CCC3C(=O)O)c2C#N)C1 (stereo not drawn) | 3.12%
O=c1[nH]nc(N/N=C/c2ccccc2OC(F)F)c(=O)[nH]1 | 11.8%
CCCN(CC(=O)Nc1cc(Cl)ccc1Cl)C(=O)c1ccc2n[nH]nc2c1 | -8.7%
COC(=O)c1cccc(NC(=S)N2CCN(C)CC2)c1 | 7.91%
CCN(CC(=O)N1CCCC1)S(=O)(=O)c1ccc2ccccc2c1 | 12.3%
COc1ccc2[nH]c3c(NCc4ccco4)ncnc3c2c1 | -5.07%
Cc1ccccc1OCCn1c(=S)[nH]c2ccccc21 | 15.5%
O=C1c2ccccc2C(=O)c2[nH]cnc21 | 6.89%
CCN(CC)C(=O)Oc1ccc(Cl)c2ccccc12 | 9.96%
CC(C)COC(=O)NC1c2ccccc2Oc2ccccc21 | -2.38%
CC1=Nc2ccccc2/C1=C\c1nc(-c2ccc(F)cc2)oc1O | 17.4%
CC(C)C1Oc2ccccc2C(=O)N(CC(=O)c2ccc3c(c2)OCCO3)C1=O (stereo not drawn) | 11.9%
CC(=O)N1CCN(C(=O)CNC(=O)c2ccc(Br)o2)CC1 | 12.5%
Cc1cccc(N(CC(=O)N2CCN(c3ccccc3F)CC2)S(C)(=O)=O)c1 | 5.79%
Cc1cc(C(=O)O)c(CSc2ncn[nH]2)o1 | 15.5%
Cc1nnc(NC(=O)c2ccccc2F)s1 | 12.7%
Cc1ccc(N(CC(=O)O)C2SC(=O)NC2=O)cc1 (stereo not drawn) | 12.9%
COc1ccc(NC(=O)CCN2C(=O)C3C4C=CC(C4)C3C2=O)cc1 (stereo not drawn) | 5.4%
